These results are taken from publication PMC12040169 (PLOS Biology, 2025).

This is one part of the list.

In the test the test system is T1, C. trachomatis L2/434/Bu expressing GFP (CTL2-GFP).
T1 construct: L2/434/Bu GFP intracellular growth in HeLa cells
Details: species or system HeLa; C. trachomatis total inclusion area by high-content imaging, normalised to DMSO. The note with it: total inclusion area; 28.5 h, 10 µM; inhibitor. In short, it runs like this: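 Imaging read-out: GFP inclusions and Hoechst nuclei captured by high-content imaging after fixation. Inclusion area/number = chlamydial growth; nuclei count = host cell viability. MIC calculated per earlier method.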
Take `CC(=O)N1CCN(C(=O)Cn2ccc3ccccc32)CC(O)C1` (centres unmarked) [CBK307552]: the “% of control remaining” value was 134.248.
With `COc1ccc(CN2CCc3cc(OC)c(OC)cc3C2c2ccccc2)cc1CO` (centres unmarked) [CBK286358] the figure was 95.1937; with `COc1ccc(CN2Cc3nc[nH]c3C[C@H]2C(=O)NCc2ccccc2)c2ccccc12` [CBK288976], 88.0283; with `O=[N+]([O-])c1cccc(CN2CCC(N3CCN(Cc4ccccc4)CC3)CC2)c1` [CBK264609G], 94.7249.
To `Cc1cc2nc(-c3cc(NC(=O)/C=C/c4cccc([N+](=O)[O-])c4)ccc3O)oc2cc1C` [CBK263438] belongs 91.3325.
Consider `Cc1nn(CC(C)C(=O)N2CCCC(CN(C)C)C2)c(C)c1Cl` (centres unmarked) [CBK282186], for which the “% of control remaining” value came to 101.773.
With `CCc1cccc2c(/C=C3/SC(=S)N(CC(=O)O)C3=O)c[nH]c12` [CBK264937] the figure was 101.088; with `N#Cc1cnn2c(O)cc(Cc3ccccc3)nc12` [CBK287942], 79.4164; with `Nc1nc2c(nc(OCc3ccccc3)n2C2OC(CO)C(O)C2O)c(=O)[nH]1` (centres unmarked) [CBK201247], 117.983.
`CC(Oc1ccc(/C=N/n2cnnc2)cc1)C(=O)O` (centres unmarked) [CBK263927]: the “% of control remaining” value stood at 98.5163.
On to `O=C(CCN1CCCCC1)NCC1OCCc2ccccc21` (centres unmarked) [CBK013619], for which the “% of control remaining” value is given as 96.4302.
As for `O=[N+]([O-])c1ccc(CN2CCC(Oc3nccnc3OCCN3CCOCC3)CC2)cc1` [CBK082923T], the “% of control remaining” value is given as 112.073.
`CCCCCOc1ccc(Nc2ccc(-c3cccc(Cl)c3Cl)cn2)cc1` [CBK036856]: the “% of control remaining” value came to 80.7747.
With `CCCNC(=O)c1ccc(NC(=O)NC(CC)c2ccnn2C)c(C)c1` (centres unmarked) [CBK307608] the figure was 72.2542; with `COc1ccc(C)cc1NC(=O)NC1CCN(Cc2ccccc2)CC1` [CBK267095], 98.6047; with `Cc1ccc(-n2ncc3c(=O)n(CC(=O)NC4CCCCC4)cnc32)cc1` [CBK287536], 106.434.
For the molecule `O=C(O)C1CCN(C(=O)CCC(=O)N2CCN(c3ccccc3)CC2)CC1` [CBK286896], the “% of control remaining” value was 93.4664.
Turning to `Cc1c(CN(Cc2cccc(F)c2)CC2CCCO2)cnn1C` (centres unmarked) [CBK282953], the “% of control remaining” value came to 95.2805.
With `CCC(=O)N(Cc1cc2cc(C)ccc2nc1O)c1ccc(C)c(C)c1` [CBK265381] the figure was 122.382.
With `Cc1noc(C(C)C)c1C(=O)NC(C)c1cccc(Br)c1` (centres unmarked) [CBK296618] the figure was 51.2293; with `COc1ccc2cc(CN(CCNC(=O)OC(C)(C)C)C(=O)NC3CCCCC3)c(=O)[nH]c2c1` [CBK132074], 58.8145.
With `CCCN1CCC(NC(C)CCCC(C)(C)O)CC1` (centres unmarked) [CBK261932] the figure was 99.3101.
Regarding `Nc1ccc(OCc2nc3ccccc3n2CC(=O)O)cc1` [CBK270099], the “% of control remaining” value is recorded as 122.138.
`COc1ccc(S(=O)(=O)N(C)CC(=O)N2CCN(C)CC2)cc1C` [CBK268105]: the “% of control remaining” value was found to be 69.6319.
For `Cc1ccc(S(=O)(=O)NC[C@H]2O[C@@H](CC(=O)N3CCCC3)[C@H](O)[C@@H]2O)cc1` [CBK288910], the “% of control remaining” value turned out to be 93.457.
Regarding `Cn1nc(C2CC2)cc1NC(=O)NCC1CCN(c2ccccc2F)C1` (centres unmarked) [CBK304380], the “% of control remaining” value was determined as 85.0925.
With `Cc1ccc(CC(=O)N2CCCCC2c2ncc(-c3cccc(F)c3)[nH]2)cn1` (centres unmarked) [CBK291152] the figure was 99.2646.
To `CN1CCN(CCOC(=O)N2CCCC(F)(F)C2)CC1` [CBK200208] belongs 93.2377.
As for `CCN1CCN(C(=O)CN(CC)S(=O)(=O)c2ccc(Cl)cc2)CC1` [CBK268461], the “% of control remaining” value turned out to be 59.5622.
For `O=C(OCc1cccc(C(=O)c2ccccc2)c1)c1ccc(-c2nnc(-c3ccccc3)o2)cc1` [CBK267852], the “% of control remaining” value was determined as 94.4351.
As to `COc1ccc(S(=O)(=O)N2CCC(C(=O)Nc3cccc(F)c3)CC2)cc1C` [CBK267987], the “% of control remaining” value is 105.321.
To `c1ccc2c(c1)CCN(c1nc3cc4c(cc3s1)OCCO4)C2` [CBK287498] belongs 88.7778.
With `O=C(c1ccco1)N1CCC(c2ccnc3nc4ccccc4n23)CC1` [CBK284490] the figure was 102.333.
With `CC(C)CC(=O)N1CCN(C(=O)c2ccc(F)cc2)CC1` [CBK003603], the “% of control remaining” value turned out to be 61.7786.
With `CC(C)(C)n1cc(NC2CCN(c3ccc(C#N)cc3)C2=O)cn1` (centres unmarked) [CBK306445] the figure was 81.4207.
To `Cc1cc(OC(=O)C2CCC(CNC(=O)OC(C)(C)C)CC2)c2c3c(c(=O)oc2c1)CCCC3` (centres unmarked) [CBK083590] belongs 85.0081; to `Cc1cc(=O)c2ccccc2n1CC(=O)N1CCC2(CCO2)CC1` [CBK306809], 87.9214; to `O=C(O)/C(=C\c1ccccc1)NC(=O)c1cccc([N+](=O)[O-])c1` [CBK263348], 88.3829.
For `Oc1cccc(OCCOc2cccc(C(F)(F)F)n2)c1` [CBK115797], the “% of control remaining” value was 67.0503.
With `N#Cc1ccc(OCCO)cc1` [CBK000723] the figure was 90.4778.
With `COc1ccc(C(C)C)cc1-c1cnc2nc(N)ccc2c1` [CBK081216] the figure was 78.4697; with `COc1ccc(C(=O)N2CCC3(CCCN(CCN(C)C)C3)C2)cc1OC` (centres unmarked) [CBK132873], 103.251.
`CC(CNC(=O)c1cncc(O)c1)NC(=O)c1cncc(O)c1` (centres unmarked) [CBK278174]: the “% of control remaining” value was found to be 102.98.
Take `CCOC(=O)c1c(NC(=O)CN2CCCCC2)sc2c1CCCC2=O` [CBK263224]: the “% of control remaining” value is recorded as 119.301.
As to `O=C(NCCCO)c1c(O)c2ccccc2[nH]c1=O` [CBK018215], the “% of control remaining” value is on record as 65.1795.
Take `CC1CCN(S(=O)(=O)c2cccc(C(=O)NNC(=O)c3ccco3)c2)CC1` [CBK266796]: the “% of control remaining” value was found to be 117.316.
To `CC(C)(C)OC(=O)NC1CCN(C(=O)CCC(=O)O)CC1` [CBK286604] belongs 72.9552; to `O=C1CC(C(=O)NCc2ccc(-c3csnn3)cc2)c2ccccc21` (centres unmarked) [CBK149301], 85.8193; to `Cc1scc(C(=O)NN2CCN(C)CC2)c1-c1ccccc1` [CBK268115], 110.267.
With `Cc1ccc(CCn2nc(C)cc2C)cn1` [CBK021375] the figure was 50.2868.
To `CCc1cnc(CN(C)C2CCN(CC(=O)NCc3ccco3)C2)o1` (centres unmarked) [CBK306137] belongs 60.3541; to `CC(C)Nc1nc2ccccc2nc1SCCC(=O)O` [CBK107858], 100.446.
In the case of `COC(=O)c1sccc1Oc1ccc([N+](=O)[O-])cn1` [CBK066826], the “% of control remaining” value came out at 97.0953.
For `COc1ccccc1Cc1cccc(C2CCN(C(=O)Cc3c[nH]c4ccccc34)CC2)n1` [CBK286226], the “% of control remaining” value is 110.945.
Regarding `COc1c(Cl)cc(Cl)cc1C(=O)NC(=S)Nc1sc2c(c1C#N)CCCC2` [CBK268741], the “% of control remaining” value is 94.5804.
With `CC(C)Nc1cccnc1N1CCN(C(=O)c2cc3cc(NS(=O)(=O)CCc4ccncc4)ccc3[nH]2)CC1` [CBK012661] the figure was 112.475; with `COc1ccc(C(=O)N2CCN(C)CC2)cc1Nc1cncc(-c2cc3ccccc3o2)n1` [CBK155266T], 93.2172; with `COc1cncc(-c2cnc(N)c(NCc3cccnc3)n2)c1` [CBK063531], 126.288.
With `Nc1ncc(-c2cccc3cccnc23)nc1NCc1ccncc1` [CBK063622] the figure was 107.785.
With `Cc1cc(C(=O)N2CCCC(c3ccc(Cc4ccc(Cl)cc4)cn3)C2)nc(N(C)C)n1` (centres unmarked) [CBK286036] the figure was 67.6131.
As for `CCOc1cccc2cc(-c3cc(=O)oc4cc(C)c(O)cc34)oc12` [CBK300517], the “% of control remaining” value is 70.5316.
For the molecule `COc1ncc(-c2nccnc2OCCc2c[nH]c3ccccc23)c(OC)n1` [CBK106743], the “% of control remaining” value is 118.575.
To `CCOC(=O)Cn1[nH]c(CO)c(Cc2c(Cl)cccc2Cl)c1=O` [CBK103580] belongs 96.816.
To `Cc1cc(C)nc(NC(=O)OCc2cc(C)nc(C)c2)c1` [CBK138231] belongs 103.553; to `COc1ccc(-c2cnccc2-n2ccnc2)cn1` [CBK177147], 93.0511; to `FC(F)(F)c1cccnc1OCCN1CCOCC1` [CBK113456], 89.182.
With `CCC1(CC)OC(N[C@@H](C)c2ccc(Br)cc2)=NC1=O` [CBK126665] the figure was 79.9479; with `COc1cccc2cc(C(=O)NCc3cccs3)oc12` [CBK149799], 87.5292.
For the molecule `Cc1ccc(Nc2cc(-c3cccnc3)ncn2)cc1NS(C)(=O)=O` [CBK091147], the “% of control remaining” value worked out at 84.1481.
With `CC(Oc1cccc(Br)c1)C(=O)NCCC(=O)O` (centres unmarked) [CBK268024] the figure was 104.648.
`Cc1oc(C)c(C(=O)Nc2cccc(C(=O)O)c2)c1C(=O)Nc1cccc(C(=O)O)c1` [CBK266472]: the “% of control remaining” value is 116.891.
To `Cc1ccc(S(=O)(=O)N[C@H]2CO[C@H]3[C@@H]2OC[C@@H]3n2nnnc2Oc2ccccc2)cc1` [CBK289485] belongs 90.9028; to `O=C(CSc1nnnn1C1CC1)c1cc2ccccc2o1` [CBK297158], 76.8576.
With `O=C(c1ccccc1)N1C[C@@H](c2ccsc2)[C@@H]2CN(Cc3ccccc3Cl)CC[C@@H]21` [CBK285613] the figure was 79.4748; with `c1cc(-c2n[nH]c(C3CCNCC3)n2)ccn1` [CBK104676C], 116.772; with `CC(C)(C)c1nnc(NS(=O)(=O)c2ccc([N+](=O)[O-])cc2)s1` [CBK045500], 105.475.
With `c1csc(Sc2nc3ccccc3nc2N2CCCC2)c1` [CBK115225], the “% of control remaining” value turned out to be 75.6513.
Consider `Cc1cc(Cl)cc(Cl)c1S(=O)(=O)Nc1nc(CC(=O)O)cs1` [CBK000573], for which the “% of control remaining” value was 57.8606.
As to `COc1ccccc1CN(Cc1cccnc1)C(=O)CCN1CCCO1` [CBK306959], the “% of control remaining” value worked out at 88.7135.
To `CN(C)CC(=O)N/N=C/c1ccsc1` [CBK008256C] belongs 51.4475.
